The list shows a part of the results. The full chains were built here from the parent and the listed change. Values near 0.05 are background.
B1: TEV protease; numbered along this chain (parent)
chain: MGESLFKGPRDYNPISSSICHLTNESDGHTTSLYGIGFGPFIITNKHLFRRNNGTLVVQSLHGVFKVKDTTTLQQHLVDGRDMIIIRMPKDFPPFPQKLKFREPQREERICLVTTNFQTKSMSSMVSDTSCTFPSGDGIFWKHWIQTKDGQCGSPLVSTRDGFIVGIHSASNFTNTNNYFTSVPKNFMELLTNQEAQQWVSGWRLNADSVLWGGHKVFMVKPEEPFQPVKEATQL

Variants of: B1
Assay: raw area under fraction-flipped curve 0-4 h after induction (AUC4h, not background-subtracted), DNA-recorder readout of cleavage of the substrate (dimensionless); higher = more cleavage of the substrate by the protease variant
Conditions: temperature: 34 °C; time window: 0-4 h after rhamnose induction
Protocol: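 In vivo DNA recorder in E. coli TOP10(DE3) ΔrhaA at 34 °C. Each TEVp single-site mutant (parent TEVp 0) is paired with a single-site variant of the 7-mer TEVs (canonical ENLYFQ|S). The substrate sits between flexible linkers in a Bxb1-sfGFP-TEVs-SsrA fusion, so cleavage stabilises Bxb1 and speeds flipping of a recombination array, read by NGS. The value is the raw area under the fraction-flipped curve over 0-4 h after rhamnose induction (AUC4h), with ≥20 reads per time point. It is not background-subtracted; inactive controls average about 0.047.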
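Also: Bxb1 expression induced with 0.2% (w/v) L-rhamnose at OD600 near 0.5, cultures sampled hourly, flipped fraction per protease–substrate barcode pair counted by paired-end Illumina sequencing.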

Variant	area with substrate ENLDFQS	area with substrate ENLGFQS	area with substrate ENLHFQS	area with substrate ENLIFQS	area with substrate ENLKFQS	area with substrate ENLLFQS	area with substrate ENLNFQS	area with substrate ENLSFQS	area with substrate ENLTFQS	area with substrate ENLEFQS	area with substrate ENLFFQS	area with substrate ENLPFQS	area with substrate ENLQFQS	area with substrate ENLWFQS	area with substrate ENLMFQS	area with substrate ENLRFQS	area with substrate ENLVFQS
MGESLFKGPRDYNPISSSICHLTNESDGHTTSLYGIGFGPFIITNKHLFRRNNGTLVVQSLHGVFKVKDTTTLQQHLVDGRDMIIIRMPKDFPPFPQKLKFREPQREERICLVTTNFQTKSMSSMVSDTRCTFPSGDGIFWKHWIQTKDGQCGSPLVSTRDGFIVGIHSASNFTNTNNYFTSVPKNFMELLTNQEAQQWVSGWRLNADSVLWGGHKVFMVKPEEPFQPVKEATQL [S130R]	0.0567	0.0573	0.0667	0.0529	0.0939	0.0663	0.0566	0.0732	0.0413	–	–	–	–	–	–	–	–
MGESLFKGPRDYNPISSSICHLTNESDGHTTSLYGIGFGPFIITNKHLFRRNNGTLVVQSLHGVFKVKDTTTLQQHLVDGRDMIIIRMPKDFPPFPQKLKFREPQREERICLVTTNFQTKSMSSMVSDTSCTFPSGDGIFWKHWIQTKDGQCGSPLVSTRDGFIVGIHSASNFTNTNNMFTSVPKNFMELLTNQEAQQWVSGWRLNADSVLWGGHKVFMVKPEEPFQPVKEATQL [Y179M]	0.067	–	0.0644	0.0442	0.0596	0.0632	0.0656	0.0686	–	0.0596	0.0602	0.058	0.056	–	–	–	–
MGESLFKGPRDYNPISSSICHLTNESDGHTTSLYGIGFGPFIITNKHLFRRNNGTLVVQSLHGVFKVKDTTTLQQHLVDGRDMIIIRMPKDFPPFPQKLKFREPQREERICLVTTNFQTKSMSSMVSDTSCTFTSGDGIFWKHWIQTKDGQCGSPLVSTRDGFIVGIHSASNFTNTNNYFTSVPKNFMELLTNQEAQQWVSGWRLNADSVLWGGHKVFMVKPEEPFQPVKEATQL [P134T]	0.059	–	0.0585	0.0686	–	0.0541	0.075	0.0413	–	–	0.0627	0.0553	–	0.0455	–	–	–
MGESLFKGPRDYNPISSSICHLTNESDGHTTSLYGIGFGPFIITNKHLFRRNNGTLVVQSLHGVFKVKDTTTLQQHLVDGRDMIIIRMPKDFPPFPQKLKFREPQREERICLVTTNFQTKSMSSMVSDTSCTFPSGDGIFWKHWIQTKDGQCGSPLVSTRDGFIVGIHSASNFTNTNNYFTSVYKNFMELLTNQEAQQWVSGWRLNADSVLWGGHKVFMVKPEEPFQPVKEATQL [P184Y]	0.0676	0.0746	–	0.0515	0.0544	–	0.0617	0.0477	–	–	–	0.0498	–	0.0506	0.0638	0.0674	–
MGESLFKGPRDYNPISSSICHLTNESDGHTTSLYGIGFGPFIITNKHLFRRNNGTLVVQSLHGVFKVKDTTTLQQHLVDGRDMIIIRMPKDFPPFPQKLKFREPQREERICLVTTNFQTKSMSSMVSDTSCTFPSGDGIFWKHWIQTKDGQCGSPLVSTRDGFIVGIHSASNFTNTNNYFTSVRKNFMELLTNQEAQQWVSGWRLNADSVLWGGHKVFMVKPEEPFQPVKEATQL [P184R]	0.0443	–	0.0395	–	0.0629	–	–	0.0558	–	–	0.0745	0.0066	0.05	–	–	0.0724	–
MGESLFKGPRDYNPISSSICHLTNESDGHTTSLYGIGFGPFIITNKHLFRRNNGTLVVQSLHGVFKVKDTTTLQQHLVDGRDMIIIRMPKDFPPFPQKLKFREPQREERICLVTTNFQTKSMSSMVSQTSCTFPSGDGIFWKHWIQTKDGQCGSPLVSTRDGFIVGIHSASNFTNTNNYFTSVPKNFMELLTNQEAQQWVSGWRLNADSVLWGGHKVFMVKPEEPFQPVKEATQL [D128Q]	0.0605	–	–	0.119	0.0868	0.0705	0.0646	0.0786	–	0.0715	0.0922	0.0695	0.0703	–	0.0857	0.0904	–
MGESLFKGPRDYNPISSSICHLTNESDGHTTSLYGIGFGPFIITNKHLFRRNNGTLVVQSLHGVFKVKDTTTLQQHLVDGRDMIIIRMPKDFPPFPQKLKFREPQREERICLVTTNFQTKSMSSMVSGTSCTFPSGDGIFWKHWIQTKDGQCGSPLVSTRDGFIVGIHSASNFTNTNNYFTSVPKNFMELLTNQEAQQWVSGWRLNADSVLWGGHKVFMVKPEEPFQPVKEATQL [D128G]	0.139	–	–	–	–	–	0.057	–	–	–	–	–	–	–	–	0.132	–
MGESLFKGPRDYNPISSSICHLTNESDGHTTSLYGIGFGPFIITNKHLFRRNNGTLVVQSLHGVFKVKDTTTLQQHLVDGRDMIIIRMPKDFPPFPQKLKFREPQREERICLVTTNFQTKSMSSMVSDTSCTFPSGDGIFWKHWIQTKDGQCGSPLVSTRDGFIVGGHSASNFTNTNNYFTSVPKNFMELLTNQEAQQWVSGWRLNADSVLWGGHKVFMVKPEEPFQPVKEATQL [I167G]	0.0576	–	0.0677	–	0.0531	0.056	0.0552	0.0595	–	0.0552	0.0662	–	–	–	0.053	–	0.0935
MGESLFKGPRDYNPISSSICHLTNESDGHTTSLYGIGFGPFIITNKHLFRRNNGTLVVQSLHGVFKVKDTTTLQQHLVDGRDMIIIRMPKDFPPFPQKLKFREPQREERICLVTTNFQTKSMSSMVSDTSCTFPSGDGIFWKHWIQTKDGQCGSPLVSCRDGFIVGIHSASNFTNTNNYFTSVPKNFMELLTNQEAQQWVSGWRLNADSVLWGGHKVFMVKPEEPFQPVKEATQL [T159C]	0.0623	–	–	–	0.0838	–	0.0553	0.0674	–	–	–	–	–	–	–	0.0789	–
MGESLFKGPRDYNPISSSICHLTNESDGHTTSLYGIGFGPFIITNKHLFRRNNGTLVVQSLHGVFKVKDTTTLQQHLVDGRDMIIIRMPKDFPPFPQKLKFREPQREERICLVTTNFQTKSMSSMVSDTSCTFPSGDGIFWKHWIQTKDGQCGSPLVSTRDGFIVGIHSASNFRNTNNYFTSVPKNFMELLTNQEAQQWVSGWRLNADSVLWGGHKVFMVKPEEPFQPVKEATQL [T174R]	0.0638	–	0.0913	0.0851	0.0785	0.0641	0.0475	–	–	0.0623	0.0744	0.0713	0.0423	0.0508	0.0666	–	0.0509
MGESLFKGPRDYNPISSSICHLTNESDGHTTSLYGIGFGPFIITNKHLFRRNNGTLVVQSLHGVFKVKDTTTLQQHLVDGRDMIIIRMPKDFPPFPQKLKFREPQREERICLVTTNFQTKSMSSMVSDTSCTFPSGDGIFWKHWIQTKDGQCGSPLVSTRDGFIVGIHSASNFLNTNNYFTSVPKNFMELLTNQEAQQWVSGWRLNADSVLWGGHKVFMVKPEEPFQPVKEATQL [T174L]	0.061	–	0.0678	0.093	0.0902	–	–	0.0501	–	–	0.104	–	0.0733	–	–	0.0867	0.0859
